# Values marked as one replicate rest on one cluster of the flow cell; about a third of the high ones do not repeat.
# System: ATP
# Test: switch fluorescence ratio, 500 uM ATP over buffer (Cy3 cluster intensity, sum of 5 cycles each) (fold (ratio)); higher = stronger signal-on switching upon ATP binding; sequences stand for … in TCGTCGGCAGCGTCAGATGTGTATAAGAGACAGTTTTTTTTTTTTTTTTTTTTTTTTT…TC
# Details: aptamer strand: ATP DNA aptamer (quencher-CACCTGGGGGAGTATTGCGGAGGAAGG + anchor), 100 nM annealed; ATP concentration: 500 uM; one replicate
# In short: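 For every switch-domain sequence, the fluorescence ratio is the mean of per-cluster values, each being summed target-cycle Cy3 intensity over summed buffer-cycle Cy3 intensity. Clusters outside 100-1000 RFU were excluded. On a modified Illumina MiSeq flow-cell, the Cy3-labelled switching-strand clusters were annealed to 100 nM quencher-labelled ATP aptamer, imaged in selection buffer and then after 15 min with 500 uM ATP at 22 °C. Five such cycles were run, with NaOH stripping and re-annealing between them.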
# 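Further: ATP exposure 15 min at 22 °C before imaging.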
row,Sequence,switch fluorescence ratio
1,AGACATCCGG,1.07
2,ATGATCGCG,0.958
3,ATCGGGCAAA,0.979
4,AACATCCTTA,0.994
5,GCTTTATGT,0.996
6,GTGTGAAAGT,0.966
7,CCGGGCGGTC,1.68
8,GTGAGTGAGG,1.02
9,TACCCATCGG,1
10,GGGATTGATG,1.04
11,ATACCATTTG,1.04
12,GATCAGAGCA,1.02
13,TTAGCAGTGT,1.03
14,ATACCATAAG,1.05
15,AGTGCTGGTA,0.989
16,ATTGCTACGG,1.05
17,ACCTGGTGAC,1.32
18,GTGGCAGTTG,1.01
19,AGTATTACGC,0.956
20,GACTTTTGTT,0.909
21,AAAGGCCATA,1.01
22,CTGGATGCG,0.971
23,AGGTTGGCGC,0.956
24,GGCACCATTA,1.03
25,ACGCGATCA,1.12
26,ATATGATATG,1.02

row,Sequence,switch fluorescence ratio
1,AATCTCGGAC,0.994
2,GAAGTACGGG,1.17
3,CGATCAAATG,1.03
4,GCGAGGAGAG,0.98
5,TCTATCAGGT,0.959
6,TATTTAGGAT,1
7,CGCCATGAAA,1.16
8,ACTTTGATCG,1
9,ATCGAGATAG,1.02
10,GTAACTATAC,1.41
11,AATTTCCATG,0.982
12,CTTGTTGGAA,0.973
13,CCTCGGAGC,1.38
14,GTGGCCACTT,0.976
15,ACTAAGAGCA,1.04
16,CGGTCGAGT,1
17,TTATAAAGA,0.996
18,AACCAGATAG,1.02
19,GCTCAAAGTG,1
20,GTGGGGATGA,1.01
21,TGTGGGACAC,1.03
22,AATGGCCTAC,1.02
23,TAAGTCTCGA,0.987
24,TTGCCCTCTT,0.963
25,ATGGGGGC,1.08
26,CTGAGGTTG,1

row,Sequence,switch fluorescence ratio
1,AGCAGTATTA,0.939
2,GGTCCACAAA,0.968
3,TGCAAAGGTT,1.03
4,ATTTGAAATT,0.971
5,GTTCCTAAGT,1
6,TAGTACGCGA,1.54
7,GATTTCCGTA,0.955
8,TAATCAATAG,1.06
9,AGAAGACCAT,1.04
10,CGAGAGCATG,1.15
11,GGCATCGCGC,1.01
12,ATAAAATCTC,1.01
13,TATTGTGAGA,1.01
14,TTGGATTAGA,1.02
15,AAATGTACTA,1.04
16,GTGGCGGCTT,1.01
17,GTCGACGACT,0.991
18,TTAAGACGAA,0.998
19,CATGAAGGGA,1.04
20,TGGAGGTCGT,1.03
21,TTGAGCAAAA,1.06
22,TGACGGCCTA,1.07
23,CTAGGAATAT,0.992
24,TAAACGATC,0.978
25,AGAGTTAGG,1.02
26,GACGGGCGAT,1.18

row,Sequence,switch fluorescence ratio
1,GCCCATGAGC,0.982
2,GACAACCTG,1.12
3,TGAGAGAGGA,0.946
4,GCATCGATAT,0.986
5,GTTGCTAGGA,1.01
6,CAAGTAACGA,1
7,CCTCGTTTCG,1.07
8,TCTTCTCAG,0.977
9,ATGCATGATG,0.98
10,GGAACTCCCT,1.05
11,CTCTTGACAG,0.97
12,TTGGCAGAGT,1.01
13,TACCGTGCGG,1.04
14,GTCCCTCATT,0.953
15,CAGTGAACGA,1.02
16,GTTAGCCCCG,1.04
17,AATGATGTTT,0.984
18,ATAGGGTTA,0.974
19,GTAGCCCCGG,1.03
20,TCACCTATT,1.08
21,GCCGGGTAAG,1.01
22,GTGACGCAAG,1.1
23,GTCGGTTCGG,0.944

# Source: the supplement of paper PMC10126150
